# Laboratory results reported in paper PMC4336329 (PLoS ONE, 2015).
# Hit rate of the full screen: of about 310,000 compounds, about 2,200 (0.71%) showed an effect of 50% or more. Effects have a minus sign here. The list shows a part of the results.
# Biological target: human ether-à-go-go-related gene (hERG) potassium channel (human, UniProt Q12809)
# Test: primary screen, population patch clamp on CHO cells stably expressing hERG
# human ether-à-go-go-related gene (hERG) potassium channel, sequence (Q12809 whole entry, looked up): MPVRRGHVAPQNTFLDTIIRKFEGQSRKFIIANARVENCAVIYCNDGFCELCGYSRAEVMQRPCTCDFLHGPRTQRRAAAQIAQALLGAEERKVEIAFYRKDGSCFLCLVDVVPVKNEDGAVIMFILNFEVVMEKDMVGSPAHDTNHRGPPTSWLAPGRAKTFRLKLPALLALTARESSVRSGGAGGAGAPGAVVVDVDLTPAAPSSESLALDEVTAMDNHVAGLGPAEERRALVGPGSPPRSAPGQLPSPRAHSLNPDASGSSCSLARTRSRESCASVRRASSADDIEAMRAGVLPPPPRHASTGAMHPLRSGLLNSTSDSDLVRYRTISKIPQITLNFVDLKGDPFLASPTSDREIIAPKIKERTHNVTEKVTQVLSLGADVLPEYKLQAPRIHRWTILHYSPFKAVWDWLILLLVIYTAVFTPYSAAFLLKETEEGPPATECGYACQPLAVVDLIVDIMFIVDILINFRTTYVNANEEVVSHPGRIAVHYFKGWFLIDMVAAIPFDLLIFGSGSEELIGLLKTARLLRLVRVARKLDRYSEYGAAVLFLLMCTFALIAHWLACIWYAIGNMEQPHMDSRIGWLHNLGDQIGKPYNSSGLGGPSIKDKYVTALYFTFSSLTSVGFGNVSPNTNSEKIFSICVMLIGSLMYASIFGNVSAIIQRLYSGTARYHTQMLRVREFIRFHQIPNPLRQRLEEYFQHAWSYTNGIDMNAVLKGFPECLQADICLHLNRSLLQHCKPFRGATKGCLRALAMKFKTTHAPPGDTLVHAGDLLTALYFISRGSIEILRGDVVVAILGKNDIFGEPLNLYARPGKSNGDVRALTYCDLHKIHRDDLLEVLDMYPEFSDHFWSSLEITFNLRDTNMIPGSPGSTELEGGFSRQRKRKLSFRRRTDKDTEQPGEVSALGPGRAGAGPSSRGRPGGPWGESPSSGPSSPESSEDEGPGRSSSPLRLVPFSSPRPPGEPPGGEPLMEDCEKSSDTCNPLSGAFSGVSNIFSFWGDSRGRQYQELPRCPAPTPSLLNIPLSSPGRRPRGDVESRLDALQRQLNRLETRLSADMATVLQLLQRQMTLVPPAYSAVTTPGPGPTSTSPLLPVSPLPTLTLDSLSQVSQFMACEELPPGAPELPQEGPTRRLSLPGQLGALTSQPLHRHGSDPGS
row,Compound,"hERG current change (%, negative = inhibition) at 1uM [%]"
1,CC(=O)c1c(C)[nH]c(C(=O)Nc2cccc(S(=O)(=O)N(C)c3ccccc3)c2)c1C,2.45
2,CCc1nnc(NC(=O)CSc2nnc(C(C)NC(=O)c3ccccc3F)n2C)s1 (centres unmarked),8.99
3,COc1cccc(-c2c(C(=O)N/N=C(\C)c3ccco3)nnn2-c2nonc2N)c1,19.7
4,Cc1ccc2c(c1)N(C(=O)CCC(=O)NCc1ccccn1)CC(C)O2 (centres unmarked),2.39
5,CC(C)c1ccccc1NC(=O)c1cccc(NC(=O)c2ccccc2)c1,1.18
6,Cc1cccc(NC(=O)CC(C)S(=O)(=O)c2ccc3c(c2)NC(=O)CO3)c1C (centres unmarked),-12
7,CCCN(CCC)CC(O)CN1C(=O)N(CN2C(=O)N(CC(O)CN(CCC)CCC)C(=O)C2(C)C)C(C)(C)C1=O (centres unmarked),13.1
8,Nc1ccc(N(c2ccccc2)c2ccc(N)cc2)cc1,1.88
9,CCOC(=O)N1CCN(Cc2nc3cc(NC(=O)CC)ccc3n2C)CC1,11.5
10,COc1ccc(C)cc1NS(=O)(=O)c1ccc2c(c1)NC(=O)C(C)S2 (centres unmarked),9.54
11,CC(=O)c1c(N=CN(C)C)nc(C)nc1-c1ccccc1,6.43
12,O=C(O)C(=O)O.O=C(c1ccccc1)N1CCN(CC(O)Cn2ccc3ccccc32)CC1 (centres unmarked),-9.28
13,Cc1ccccc1C(=O)Nc1nnc(-c2ccc(C(C)(C)C)cc2)s1,7.46
14,COc1cccc(NC(=O)NC2CCCCC2C)c1 (centres unmarked),11.3
15,CSCCC(NC(=O)c1cc(C)oc1C)C(=O)O (centres unmarked),-3.45
16,CCCn1cc(CN2CCc3ccc(NC(=O)C4CCCO4)cc3C2)c(C)n1 (centres unmarked),9.52
17,O=C(Cc1cccs1)N=Nc1c(O)[nH]c2ccccc12,10.2
18,O=C(O)CSCc1c(F)cccc1Cl,-1.76
19,Cc1cc(C)cc(NC(=O)COC(=O)Cc2ccccc2F)c1,9.13
20,C=CCN(c1ccc(C(=O)Nc2ccc(NC(C)=O)cc2)cc1)S(C)(=O)=O,17.3
21,CN1CCN(C(=O)CNC(=O)Cc2ccc(Cl)cc2)CC1,9.18
22,Cc1cc2ccccn2c1C(=O)c1ccc([N+](=O)[O-])cc1[N+](=O)[O-],14.6

row,Compound,"hERG current change (%, negative = inhibition) at 1uM [%]"
1,CCOC(=O)c1c(C)[nH]c(C(=O)C(Cc2ccccc2)N(C)C)c1C.Cl (centres unmarked),-1.7
2,Cc1cc(C)c2nc(N3C(=O)C(O)=C(C(=O)c4ccco4)C3c3cccc(O)c3)sc2c1 (centres unmarked),11.5
3,COc1ccc(C(=O)Nc2nnc(Cc3ccccc3)s2)c(OC)c1,6.93
4,O=C1C=C(c2ccc3ncccc3c2)C[C@@H](c2ccc(F)cc2)C1,4.68
5,COC(=O)C1=C(c2ccc(OC)c(OC)c2)C[C@@H]2CC[C@H]1N2C(=O)NCc1cc(C)oc1C(F)(F)F,14.6
6,CCOC(=O)c1cc2cc(CC(=O)c3ccc(OCC)cc3O)ccc2o1,8.63
7,COc1ccc(NC(=O)/C(=C\c2ccc3c(c2)OCO3)NC(C)=O)cc1,3.52
8,Cc1ccc(C)c(NS(=O)(=O)c2cc(C(=O)NCCC3=CCCCC3)ccc2C)c1,1.85
9,COc1ccccc1CNC(=O)C1CC(=O)N(c2ccc(C)c(C)c2)C1 (centres unmarked),8.27
10,CCOc1ccc(NC(=O)NCCCN2CCCC2)cc1,5.43
11,COC(=O)C1CCN(c2ccc([N+](=O)[O-])cc2)CC1,4.38
12,COc1ccc(C(=O)COC(=O)c2ccc(NC(=O)c3ccccc3)cc2)cc1,-2.27
13,CCOc1ccc(NC(=O)CCC(=O)n2nc(C)cc2C)cc1,8.47
14,COc1ccc(C(c2nnnn2C(C)(C)C)N2CCN(C(=O)c3ccco3)CC2)cc1 (centres unmarked),-4.01
15,Cc1ccc(C)c(OCCNc2ncccc2[N+](=O)[O-])c1,13.6
16,CCOc1ccc(N=C(/C(C(=O)C(=O)N2CCOCC2)=C(/O)c2ccccc2)c2ccccc2)cc1,11.3
17,COc1ccc(C(=O)NC2CCCc3c2cnn3-c2ccccc2F)o1 (centres unmarked),9.23
18,Cc1ccc(C(=O)NC2=NCCS2)cc1,4.52
19,S=c1[nH]c(-c2ccccc2)cn1/N=C/c1cccc2ccccc12,15.8
20,Cc1noc(C)c1S(=O)(=O)N(CC(=O)Nc1ccc2c(c1)OCO2)c1ccc(C(C)C)cc1,13.3
21,Cc1nonc1OCCNCCNc1ccccc1[N+](=O)[O-],-1.22
22,CN(C(=O)COc1ccccc1)c1nnc(C23CC4CC(CC(C4)C2)C3)s1,5.75

row,Compound,"hERG current change (%, negative = inhibition) at 1uM [%]"
1,CCOc1ccc(OCC)c(Nc2cc(C)nc3nc(C)nn23)c1,-3.32
2,NC(=O)CC(NC(=O)Cc1cccc2ccccc12)c1ccc(NCCN2CCCCC2)c([N+](=O)[O-])c1 (centres unmarked),8.77
3,COc1cc2c(cc1NC(=S)Nc1cccc3ccccc13)oc1ccccc12,7.37
4,COc1ccccc1C(=O)NC(=O)Nc1c(C)cc(C)cc1C,13.8
5,CCOCCCN(C(=O)c1snc(C(N)=O)c1N)C(C(=O)NC1CCCC1)c1ccc(F)cc1 (centres unmarked),12.1
6,O=Nc1c(-c2c(O)[nH]c3cc(Br)ccc23)[nH]c2ccccc12,13
7,CC(=O)Nc1ccc(NC(=O)COc2ccc(S(=O)(=O)N3CCCC3)cc2)cc1,10.6
8,CNC(=O)CC1C(=O)N(C)C(=S)N1NC(=O)c1ccccc1 (centres unmarked),9.78
9,O=C(CN1c2ccccc2Sc2ccccc21)NNC(=O)Nc1ccc(Cl)c(Cl)c1,13.9
10,CC(C)[C@H](NC(=O)c1ccccc1)C(=O)OCC(=O)N1CCc2ccccc2C1,5.61
11,Cn1cccc1/C=N/N1CCN(c2ccccc2)CC1,18.1
12,CC(C)[C@H](NC(=O)[C@@H]1Cc2ccccc2CN1C(=O)OC(C)(C)C)C(=O)NCC1CCC(C(=O)O)CC1 (some centres unmarked),7.21
13,c1ccc(-c2ccc3nnnn3n2)cc1,11.9
14,COc1ccccc1/C=N/NC(=S)NCc1ccco1,12.4
15,Cc1nc2cc(OCc3cc(C(=O)NC(C)c4cn(C)nc4C)no3)ccc2s1 (centres unmarked),8.52
16,Cc1cc(C)nc(N/C(=N\S(=O)(=O)Cc2ccccc2)Nc2cccc(Cl)c2C)n1,3.68
17,CC1(C)CC(NC(=O)C(=O)NCCc2ccccc2)CC(C)(C)N1,8.84
18,COc1ccc(C2=CC(=O)OC(C)(c3ccccc3)O2)cc1 (centres unmarked),11.2
19,COc1cnc(-c2ccccn2)nc1Oc1ccc(Cl)c2ccccc12,-0.548
20,O=C1CCCCCN1C(=O)c1ccc(C(=O)N2CCCCCC2=O)cc1,5.89
21,CC(C)(C)c1ccc(OC(=O)CN2C(=O)C3C4CCC(C4)C3C2=O)cc1 (centres unmarked),5.86
22,CCCCNC(=S)N(C)N=C1CCC(c2ccccc2)CC1 (centres unmarked),8.4

row,Compound,"hERG current change (%, negative = inhibition) at 1uM [%]"
1,Cc1ccc(S(=O)(=O)N2C(=O)/C(=C3\SC(=S)NC3=O)c3ccccc32)cc1,8.72
2,CCC(=O)NC(=S)Nc1ccc(S(=O)(=O)NC2CCCCC2)cc1,4.71
3,CC[C@@H](C)[C@H](NC(=O)CNC(=O)Cc1c(C)c2c(cc(C)c3c(C)coc32)oc1=O)C(=O)O,5.48
4,Nc1ccc(N=Nc2ccccc2Cl)c(N)n1,13
5,Cc1ccc(-c2csc3nnc(SCC(=O)NCc4ccco4)n23)cc1,7.58
6,CCOc1ccccc1CNC(=O)Cn1nc(C)c2c(C)n(-c3ccc(C)cc3)nc2c1=O,17.1
7,COC(=O)CN(C)C(=O)c1ccc(OC2CCN(S(=O)(=O)N(C)C)CC2)cc1,11.1
8,c1ccc(SCc2cn(C[C@H]3CC[C@@H]([C@@H]4CC[C@H](Cn5cc(CSc6ccccc6)nn5)O4)O3)nn2)cc1,7.38
9,CCCn1c(=O)c(F)cn(Cc2ccc(OC)c([N+](=O)[O-])c2)c1=O,1.19
10,CC(C)CCN(CCC(C)C)C(CO)(CO)CO,14.1
11,CCn1c(=O)c(C(=O)NNC(=O)c2ccccc2)c(O)c2ccccc21,9.21
12,Cl.O=C(COc1ccccc1Cc1ccccc1)NCCCN1CCOCC1,-1.12
13,COC(=O)c1ccc(CNC(=O)C23CC4CC(CC(C4)C2)C3)cc1,3.43
14,CCOC(=O)CNC(=O)CSc1nnc(-c2cccc(C)c2)n1-c1ccc(OC)cc1,-17.7
15,Cc1ccc2cccc(OCC(=O)N3CC(C)CC(C)C3)c2n1 (centres unmarked),14.1
16,Cc1scc(-c2n[nH]c(=S)n2Cc2ccccc2)c1C,7.51
17,CN(C)CC/C=C1\c2cc(Cl)ccc2Sc2cc(F)c(F)cc21.Cl,12.7
18,Cc1ccc(-c2n[nH]c(=S)n2/N=C/c2ccc(C)o2)cc1,12.3
19,CC1(C)CC(=O)C(C=Nc2ccccc2)=C(O)C1,-5.2
20,O=C(Cc1nn[nH]n1)c1ccccc1O,17.2
